# Some of the results follow.
# B1: rCnSL-A (Clitocybe nebularis) (protein)
# chain: VNPNLPGPNDVFVGFRGTNNIVGAIYEKDGIKDTPLNNGADAEMGPGSYITDGLFTARIFASGSAGNNPGTTATVCKIYASGVQWRGAPKGYIPVAYFGNGPTAEQRRQTYLRTLGLPGTAIRFGNLNTNPGQGPTAPRQMVVPPGPLRSLLKASCFPAADTRLPQTLHYFEKRVDWNIITAADSQTWGH
# Assays:
# Experiment in all cases: glycan array binding signal (z-score within array); higher = stronger binding
# Conditions in all cases: glycan notation: IUPAC condensed, linker removed
# [1] = biological target: Fuc(a1-2)Gal
# Procedure, shortened: (§1)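 The Consortium for Functional Glycomics database supplied 3228 glycan arrays, of which those lacking an available protein sequence were dropped. The binding signal, a within-array Z-score, was averaged across arrays of the same protein sequence and across linkers. Negative scores can be read as non-binding.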
# [2] = biological target: Fuc(a1-2)Gal(b1-3)GalNAc
# Procedure, shortened: as §1
# [3] = biological target: Fuc(a1-2)Gal(b1-3)GalNAc(a1-3)[Fuc(a1-2)]Gal(b1-4)Glc
# Procedure, shortened: as §1
# [4] = biological target: Fuc(a1-2)Gal(b1-3)GalNAc(a1-3)[Fuc(a1-2)]Gal(b1-4)GlcNAc
# Procedure, shortened: as §1
# [5] = biological target: Fuc(a1-2)Gal(b1-3)GalNAc(b1-3)Gal
# Procedure, shortened: as §1
# [6] = biological target: Fuc(a1-2)Gal(b1-3)GalNAc(b1-3)Gal(a1-4)Gal(b1-4)Glc
# Procedure, shortened: as §1
# [7] = biological target: Fuc(a1-2)Gal(b1-3)GalNAc(b1-4)[Neu5Ac(a2-3)]Gal(b1-4)Glc
# Procedure, shortened: as §1
# [8] = biological target: Fuc(a1-2)Gal(b1-3)GlcNAc
# Procedure, shortened: as §1
# [9] = biological target: Fuc(a1-2)Gal(b1-3)GlcNAc(b1-2)Man(a1-3)[Fuc(a1-2)Gal(b1-3)GlcNAc(b1-2)Man(a1-6)]Man(b1-4)GlcNAc(b1-4)GlcNAc
# Procedure, shortened: as §1
# [10] = biological target: Fuc(a1-2)Gal(b1-3)GlcNAc(b1-2)Man(a1-3)[Fuc(a1-2)Gal(b1-3)GlcNAc(b1-2)Man(a1-6)]Man(b1-4)GlcNAc(b1-4)[Fuc(a1-6)]GlcNAc
# Procedure, shortened: as §1
# [11] = biological target: Fuc(a1-2)Gal(b1-3)GlcNAc(b1-3)Gal(b1-4)Glc
# Procedure, shortened: as §1
# [12] = biological target: Fuc(a1-2)Gal(b1-3)GlcNAc(b1-3)GalNAc
# Procedure, shortened: as §1
# [13] = biological target: Fuc(a1-2)Gal(b1-3)GlcNAc(b1-3)[Fuc(a1-2)Gal(b1-3)GlcNAc(b1-6)]GalNAc
# Procedure, shortened: as §1
# [14] = biological target: Fuc(a1-2)Gal(b1-3)GlcNAc(b1-3)[Gal(b1-4)GlcNAc(b1-6)]Gal(b1-4)Glc
# Procedure, shortened: as §1
# [15] = biological target: Fuc(a1-2)Gal(b1-3)GlcNAc(b1-3)[Neu5Ac(a2-6)Gal(b1-4)GlcNAc(b1-6)]Gal(b1-4)Glc
# Procedure, shortened: as §1
# [16] = biological target: Fuc(a1-2)Gal(b1-3)GlcNAc6S
# Procedure, shortened: as §1
# [17] = biological target: Fuc(a1-2)Gal(b1-3)[Fuc(a1-4)]GlcNAc
# Procedure, shortened: as §1
# [18] = biological target: Fuc(a1-2)Gal(b1-3)[Fuc(a1-4)]GlcNAc(b1-2)Man(a1-3)[Fuc(a1-2)Gal(b1-3)[Fuc(a1-4)]GlcNAc(b1-2)Man(a1-3)]Man(b1-4)GlcNAc(b1-4)GlcNAc
# Procedure, shortened: as §1
# [19] = biological target: Fuc(a1-2)Gal(b1-3)[Fuc(a1-4)]GlcNAc(b1-2)Man(a1-3)[Fuc(a1-2)Gal(b1-3)[Fuc(a1-4)]GlcNAc(b1-2)Man(a1-6)]Man(b1-4)GlcNAc(b1-4)[Fuc(a1-6)]GlcNAc(b1-4)[Fuc(a1-6)]GlcNAc
# Procedure, shortened: as §1
# [20] = biological target: Fuc(a1-2)Gal(b1-3)[Fuc(a1-4)]GlcNAc(b1-3)[Fuc(a1-3)[Gal(b1-4)]GlcNAc(b1-6)]Gal(b1-4)Glc
# Procedure, shortened: as §1
# [21] = biological target: Fuc(a1-2)Gal(b1-3)[Fuc(a1-4)]GlcNAc(b1-3)[Gal(b1-4)GlcNAc(b1-6)]Gal(b1-4)Glc
# Procedure, shortened: as §1
# [22] = biological target: Fuc(a1-2)Gal(b1-4)Glc
# Procedure, shortened: as §1
# [23] = biological target: Fuc(a1-2)Gal(b1-4)Glc6S
# Procedure, shortened: as §1
# [24] = biological target: Fuc(a1-2)Gal(b1-4)GlcNAc
# Procedure, shortened: as §1
# [25] = biological target: Fuc(a1-2)Gal(b1-4)GlcNAc(b1-2)Man
# Procedure, shortened: as §1
# [26] = biological target: Fuc(a1-2)Gal(b1-4)GlcNAc(b1-2)Man(a1-3)[Fuc(a1-2)Gal(b1-4)GlcNAc(b1-2)Man(a1-6)]Man(b1-4)GlcNAc(b1-4)GlcNAc
# Procedure, shortened: as §1
# [27] = biological target: Fuc(a1-2)Gal(b1-4)GlcNAc(b1-2)Man(a1-3)[Fuc(a1-2)Gal(b1-4)GlcNAc(b1-2)Man(a1-6)]Man(b1-4)GlcNAc(b1-4)[Fuc(a1-6)]GlcNAc
# Procedure, shortened: as §1
# [28] = biological target: Fuc(a1-2)Gal(b1-4)GlcNAc(b1-2)[Fuc(a1-2)Gal(b1-4)GlcNAc(b1-4)]Man(a1-3)[Fuc(a1-2)Gal(b1-4)GlcNAc(b1-2)Man(a1-6)]Man(b1-4)GlcNAc(b1-4)GlcNAc
# Procedure, shortened: as §1
# [29] = biological target: Fuc(a1-2)Gal(b1-4)GlcNAc(b1-3)Gal(b1-4)GlcNAc
# Procedure, shortened: as §1
# [30] = biological target: Fuc(a1-2)Gal(b1-4)GlcNAc(b1-3)Gal(b1-4)GlcNAc(b1-2)Man(a1-3)[Fuc(a1-2)Gal(b1-4)GlcNAc(b1-3)Gal(b1-4)GlcNAc(b1-2)Man(a1-6)]Man(b1-4)GlcNAc(b1-4)GlcNAc
# Procedure, shortened: as §1
binder,measurement,setting,value
B1,glycan array binding signal (z-score),[1],-0.225
same,glycan array binding signal (z-score),[2],-0.267
same,glycan array binding signal (z-score),[3],-0.137
same,glycan array binding signal (z-score),[4],-0.247
same,glycan array binding signal (z-score),[5],-0.099
same,glycan array binding signal (z-score),[6],-0.218
same,glycan array binding signal (z-score),[7],-0.229
same,glycan array binding signal (z-score),[8],-0.278
same,glycan array binding signal (z-score),[9],-0.082
same,glycan array binding signal (z-score),[10],0.337
same,glycan array binding signal (z-score),[11],-0.234
same,glycan array binding signal (z-score),[12],-0.268
same,glycan array binding signal (z-score),[13],-0.034
same,glycan array binding signal (z-score),[14],-0.085
same,glycan array binding signal (z-score),[15],-0.158
same,glycan array binding signal (z-score),[16],-0.222
same,glycan array binding signal (z-score),[17],-0.177
same,glycan array binding signal (z-score),[18],1
same,glycan array binding signal (z-score),[19],-0.081
same,glycan array binding signal (z-score),[20],-0.24
same,glycan array binding signal (z-score),[21],0.015
same,glycan array binding signal (z-score),[22],-0.247
same,glycan array binding signal (z-score),[23],-0.207
same,glycan array binding signal (z-score),[24],-0.258
same,glycan array binding signal (z-score),[25],-0.221
same,glycan array binding signal (z-score),[26],-0.099
same,glycan array binding signal (z-score),[27],0.58
same,glycan array binding signal (z-score),[28],0.163
same,glycan array binding signal (z-score),[29],-0.27
same,glycan array binding signal (z-score),[30],0.037

# — the supplement of paper PMC8728848
